Assay results taken from PubChem BioAssay AID1794844 (National Center for Advancing Translational Sciences (NCATS), 2023).
Among all 2,800 compounds or so, fewer than 10 were called active. The inconclusive results got no clear call from the source; some entries with a clear call stand among them for comparison. Calls follow the shape of the dose curve; as a rule, active = well fitted inhibition curve with a large enough effect; inconclusive = small, poorly fitted or top-dose-only effect; inactive = no such curve, though single readings can be large or run the other way. Where the call is inconclusive, the potency comes from a doubtful curve fit.

molecular target: Metallo-beta-lactamase type 2 (Klebsiella pneumoniae) (UniProt C7C422); test: qHTS to identify inhibitors of the New Delhi Metallo-beta-lactamase (NDM): Nitrocefin screen against the machine-based learning selections.; as to activity, negative = inhibition: % of control where 0% means no effect; settings: NDM-1 enzyme, nitrocefin hydrolysis, absorbance 485 nm; activity, negative = inhibition: at 38.4 µM (top of the series) unless noted
In short: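 Hydrolysis by 2 nM NDM-1 was followed by absorbance after >30 min compound preincubation in HEPES pH 7.0 buffer with 1 uM Zn2SO4. For nitrocefin (16.7 uM, 15 min, 485 nm) and meropenem (50 uM, 30 min, 300 nm), each substrate ran on separate plates.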
Potency is read from the fitted curve at half-maximal effect; tags tell the direction and shape of the fitted curve.

Chain of UniProt C7C422 (C7C422 whole entry, looked up): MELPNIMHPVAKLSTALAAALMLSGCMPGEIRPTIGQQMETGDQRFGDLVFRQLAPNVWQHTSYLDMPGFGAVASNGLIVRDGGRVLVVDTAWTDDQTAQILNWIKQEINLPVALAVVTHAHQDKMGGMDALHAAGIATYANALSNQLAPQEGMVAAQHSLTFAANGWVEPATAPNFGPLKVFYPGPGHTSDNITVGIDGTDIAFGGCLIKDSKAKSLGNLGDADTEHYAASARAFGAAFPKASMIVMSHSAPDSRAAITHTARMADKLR

SMILES	Potency	activity, negative = inhibition
CC(C)NC(=O)C[C@@H]1CCNC[C@@H]1Cc1cc(CC2CCCCC2)on1	inconclusive: 21.7 µM [inhibitor, partial curve]	–
Nc1ccc(-c2ccc(OCCn3ccnc3)cc2)cn1	–	inactive: -4.87%
CNC(=O)[C@@H]1C[C@@H](n2cc(CNC(=O)Cc3ccccc3)nn2)CN1	inconclusive: 9.45 µM [inhibitor, full curve]	–
c1csc(CN2Cc3[nH]cnc3C[C@H]2c2nc(-c3ccc4c(c3)OCO4)no2)c1	–	inactive: -5.85% [at 57.5 µM]
CN(C)c1ccc(CN2Cc3[nH]cnc3C[C@H]2c2nc(-c3ccccc3)no2)cc1	inconclusive: 43.3 µM [inhibitor, single point]	–
COc1ccc(Nc2cnc3ccc(-c4cccc(CO)c4)nn23)cn1	inconclusive: 34.4 µM [inhibitor, single point]	–
Cc1cncc(C(=O)N2CC[C@@H](c3ccc4ccccc4c3)[C@H](O)C2)c1	–	inactive: -1.9%
O=C(Nc1ccc([C@H]2OCC(=O)N(CC3CCCCC3)[C@@H]2CO)cc1)c1ccccn1	inconclusive: 13.7 µM [inhibitor, partial curve]	–
COc1cccc(Nc2cc3c(cn2)CN(Cc2cccnc2)CCN3)c1	–	inactive: 6.77% [at 57.5 µM]
CS(=O)(=O)N1CC(C(=O)Nc2ccc(N3CCOCC3)cc2)C2(CCCCC2)C1 (stereo unspecified)	–	inactive: -0.109%
O=C(NC[C@H]1O[C@@H](CO)[C@@H](O)[C@H]1N1CCN(c2ccccc2)CC1)c1cccs1	–	inconclusive: -48.1% [inhibitor] [at 57.5 µM]
Cc1cc(C(=O)N[C@H](C)c2c(-c3ccc(Cl)cc3)noc2C(=O)O)c(C)o1	inconclusive: 21.7 µM [inhibitor, partial curve]	–
O=c1cc(CN2CCCC(c3nccn3Cc3ccccc3)C2)[nH]c(=O)[nH]1 (stereo unspecified)	inconclusive: 18.9 µM [inhibitor, single point]	–
C[S+](=O)([O-])Nc1cccc(Nc2cnc3ccc(-c4ccc(F)cc4)nn23)c1	inconclusive: 48.6 µM [inhibitor, partial curve, poor fit]	–
COc1ccc(-c2[nH]ncc2CN2CC[C@H]3CC[C@@H](C2)N3)cc1	inconclusive: 15 µM [inhibitor, partial curve]	–
O=C(O)Cn1ccc2cc(OCc3cccc(-c4cccc(C(F)(F)F)c4)c3)cnc21	inconclusive: 27.3 µM [inhibitor, partial curve, poor fit]	–
O=C(O)C1CN(c2nccc(N3CCC(O)CC3)n2)CCN1 (stereo unspecified)	inconclusive: 5.31 µM [inhibitor, full curve]	–
CCc1cn(C[C@H](NC2CCOCC2)C(=O)O)c(=O)[nH]c1=O	inconclusive: 21.7 µM [inhibitor, partial curve]	–
OC(c1cccc(C(F)(F)F)c1)c1nc(Nc2ccc(N3CCOCC3)cc2)n[nH]1 (stereo unspecified)	inconclusive: 17.2 µM [inhibitor, partial curve]	–
O=C(Cc1ccccc1)Nc1ccnn1C1CCN(Cc2ccc3cccc(F)c3n2)CC1	–	inactive: -1.06%
Cc1nc(CCC(=O)N2CCC(Cc3ccc(C(=O)O)cc3)C2)n[nH]1 (stereo unspecified)	–	inactive: 10.3%

SMILES	Potency	activity, negative = inhibition
CS(=O)(=O)N[C@H]1C[C@H]2C(=O)Nc3ccc(-c4ccc5c(c4)OCO5)cc3C(=O)N2C1	–	inactive: 8.55% [at 57.5 µM]
CN(Cc1cc(-c2ccccc2)n[nH]1)c1cc(C2CC(N)C2)ncn1 (stereo unspecified)	inconclusive: 13.4 µM [inhibitor, partial curve, poor fit]	–
CCNc1ncc(CN2CCC(N)(C(=O)O)C2)cn1 (stereo unspecified)	inconclusive: 11.9 µM [inhibitor, partial curve]	–
CCN(CC)C(=O)C[C@@H]1c2nc(NC(=O)N3CCOCC3)sc2C[C@@H]2[C@](C)(CO)[C@H](O)CC[C@]21C	–	inactive: 7.87%
CC(C)CNC(=O)N1CCC(Nc2cccnc2)C1 (stereo unspecified)	inconclusive: 16.8 µM [inhibitor, partial curve, poor fit]	–
COc1ccccc1-n1cc(C(=O)NC[C@@H]2C[C@H](F)CN2)cn1	–	inactive: 27.4%
CC1=C[C@@H](CNC(=O)COCC(=O)O)[C@H](C(C)C)C[C@H]1Cc1nc2ccc(C)cc2[nH]1	inconclusive: 17.2 µM [inhibitor, partial curve]	–
CN(CCCc1cnn(C)c1)C(=O)C1CNCCO1 (stereo unspecified)	inconclusive: 13.4 µM [inhibitor, partial curve]	–
O=C(N[C@H](Cc1ccccn1)C1CC(O)C1)c1n[nH]c2c1CCCC2 (stereo partly specified)	inconclusive: 15 µM [inhibitor, partial curve, poor fit]	–
Cc1cc(C)n2nc(CC(=O)N[C@H](c3ccccn3)C3CC(O)C3)nc2n1 (stereo partly specified)	inconclusive: 4.22 µM [inhibitor, full curve]	–
O=C(NC[C@H]1O[C@@H](CC(=O)N2CCCC2)[C@H](O)[C@@H]1O)c1cccc(F)c1	inconclusive: 30.6 µM [inhibitor, partial curve]	–
COc1c(F)cc(CNCC2(O)CCCNC2)cc1F (stereo unspecified)	inconclusive: 21.2 µM [inhibitor, partial curve, poor fit]	–
CCN(C)C(=O)Cn1ncc(N2CCOC(CCN)C2)cc1=O (stereo unspecified)	inconclusive: 18.9 µM [inhibitor, partial curve, poor fit]	–
O=C(c1cc2ccccc2[nH]1)N1CCNc2cnc(Nc3ccccc3)nc2C1	inconclusive: 0.0024 µM [inhibitor, full curve]	–
COC[C@H]1C[C@@H](NCc2nccs2)[C@H](O)[C@@H]1O	inconclusive: 38.6 µM [inhibitor, single point]	–
Cc1ncc2c(c1CNC(=O)CCn1c(=O)[nH]c3ccccc31)CCNC2	inconclusive: 16.8 µM [inhibitor, partial curve, poor fit]	–
COc1ncccc1C(=O)N1CCc2c(nc(-c3cccnc3)[nH]c2=O)C1	–	inactive: 3.94%
COc1ccc(CN2Cc3[nH]cnc3C[C@H]2C(=O)NCc2ccco2)cc1	inconclusive: 0.0019 µM [inhibitor, full curve]	–
CNC(=O)C1(N2CCC[C@H]2C(=O)N2CC[C@@H](O)C2)CCCCC1	inconclusive: 24.3 µM [inhibitor, partial curve]	–
O=C(O)[C@]12CCCN[C@@H]1CCN(Cc1ccc(-c3ccccn3)cc1)C2	–	inactive: -17.4%
